# Laboratory results from the supplement of paper PMC3334620.
# Over roughly 33,000 sequences, “E-score (-0.5 to 0.5)” has its median near -0.011; the highest 2% begin near 0.28. The list shows a part of the results.
# Target: T1, Gcr1 (UniProt P07261)
# T1 sequence: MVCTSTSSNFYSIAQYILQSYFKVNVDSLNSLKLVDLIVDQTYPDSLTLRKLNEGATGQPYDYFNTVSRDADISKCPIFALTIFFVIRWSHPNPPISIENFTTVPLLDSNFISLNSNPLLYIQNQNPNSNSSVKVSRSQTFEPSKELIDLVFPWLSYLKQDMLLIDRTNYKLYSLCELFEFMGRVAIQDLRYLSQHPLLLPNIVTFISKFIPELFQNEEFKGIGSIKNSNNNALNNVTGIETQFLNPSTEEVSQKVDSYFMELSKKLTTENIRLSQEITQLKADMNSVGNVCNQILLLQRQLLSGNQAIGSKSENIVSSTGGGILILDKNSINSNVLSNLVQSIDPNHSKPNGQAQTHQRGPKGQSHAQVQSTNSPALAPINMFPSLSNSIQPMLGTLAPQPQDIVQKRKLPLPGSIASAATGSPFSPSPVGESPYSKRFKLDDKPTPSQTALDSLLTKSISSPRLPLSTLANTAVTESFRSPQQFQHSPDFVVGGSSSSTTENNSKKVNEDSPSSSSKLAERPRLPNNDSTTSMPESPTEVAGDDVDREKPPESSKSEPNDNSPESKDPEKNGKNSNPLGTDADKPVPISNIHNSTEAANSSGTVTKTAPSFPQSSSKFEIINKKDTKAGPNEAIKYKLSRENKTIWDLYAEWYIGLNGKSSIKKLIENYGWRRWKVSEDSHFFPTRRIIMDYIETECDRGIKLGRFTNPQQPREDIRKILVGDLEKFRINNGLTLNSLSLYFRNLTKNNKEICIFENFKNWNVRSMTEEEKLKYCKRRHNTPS
# Assay: PBM E-score (8-mer binding enrichment) (E-score (-0.5 to 0.5)); higher = stronger / more preferred TF binding; most listed sequences are background and not binding sites
# Details: protein concentration: 100 nM; construct: GST-full length
# Summary of the method: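 Universal all-10-mer Agilent arrays, double-stranded by primer extension on fresh or once-stripped slides, were probed with about 100-200 nM GST-tagged yeast transcription factors made by PURExpress. Fluorescent anti-GST detected bound protein, and masliner normalised the scans. E-scores from the Universal PBM Analysis Suite were given to each ungapped eight-base word pooled with its reverse complement.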
row,Sequence,PBM E-score
1,AGCAAAAG,-0.151
2,ACTTGACT,-0.0523
3,CGCTCCTA,0.207
4,ATCGCGTC,0.0433
5,AGGTTTTA,0.0408
6,CAATATGC,0.0154
7,AGTGCACG,-0.133
8,CGCCGCAA,0.00387
9,CGATTGCC,-0.109
10,CAGGATGA,0.0175
11,AACGCTGA,-0.0701
12,TGTAAAAA,0.0954
13,CGCAGGAA,0.0426
14,TACTTAAA,0.217
15,CAGCGGCG,0.257
16,CCTATCAA,-0.0163
17,ACCCCGAA,0.218
18,AAGTCCTA,-0.0727
19,AAACAGGG,0.06
20,AAAGACGC,0.159
21,ACGCTTGC,-0.203
22,ACGATACA,-0.14

row,Sequence,PBM E-score
1,AATCTGTC,-0.016
2,GTGAACAA,0.0843
3,ACTACCCC,-0.0635
4,AGTGCTAG,0.0817
5,GAACGGCC,-0.206
6,ATCGGAGA,-0.0782
7,ATGCGTTC,0.018
8,AACTAGCT,-0.113
9,CCTGCCAA,-0.111
10,AGAGGACG,0.18
11,CTACTTGC,-0.057
12,CTATACAC,-0.252
13,TATCTCCA,0.166
14,AAAACCCC,-0.0406
15,TCTACACA,-0.149
16,CCCGCAGA,0.182
17,AATCCTAG,0.0455
18,GCCTTGAA,-0.184
19,ATGCGAGG,0.0129
20,GCGGTTTA,-0.263
21,ATGCGATA,0.00653
22,CAAATGAA,-0.156

row,Sequence,PBM E-score
1,TCCCCCCA,-0.241
2,AGCCACGC,-0.127
3,CAAGGGCC,-0.103
4,AAGTTCCA,0.0995
5,ATAGTTTG,0.034
6,CCGCGACC,-0.0786
7,TAAAGTTA,0.127
8,GAGGCTCC,0.278
9,AAATTGCC,0.167
10,AAACGTTC,0.0275
11,AGCTGAGA,-0.0984
12,AGCTAGAA,0.0721
13,GGACGACC,-0.145
14,CAGCAACG,0.0545
15,CCCGGTCG,-0.211
16,ATGGCTCC,0.222
17,AGCAGCGG,0.0723
18,ACCGCTCT,0.0352
19,CTGATCTA,0.018
20,CTACCCCA,0.0207
21,CCAGCATC,0.217
22,AATCGTAA,0.0789

row,Sequence,PBM E-score
1,CATGAATC,-0.113
2,GTGCTGTA,-0.219
3,GAGACCGC,-0.00411
4,CGCTTGTC,-0.0873
5,TAAGGGCA,0.024
6,CAATCATA,-0.0206
7,ATCGGTAG,-0.0272
8,ACCAGGGC,-0.158
9,ATTCAAGC,-0.0491
10,ACTACGGA,-0.0242
11,AACACTGC,0.0352
12,TCTGGTCA,-0.0814
13,AGGAGTGG,0.134
14,CACTAGGC,-0.0409
15,CACCAAAA,0.126
16,CCAATGGC,0.0654
17,AGTCAGCC,-0.2
18,TACCCGGA,-0.0492
19,CCGAGTCA,-0.25
20,GATAAAAC,0.198
